This is one part of the list.
system: T1, C. trachomatis L2/434/Bu expressing GFP (CTL2-GFP); parameters: species or system HeLa; C. trachomatis total inclusion area by high-content imaging, normalised to DMSO; conditions: total inclusion area; 28.5 h, 10 µM; inhibitor
T1 construct: L2/434/Bu GFP intracellular growth in HeLa cells
Method in brief: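 After bulk GFP and resorufin fluorescence reads, cells were fixed, stained with Hoechst and imaged by high-content microscopy. Inclusion area and number (GFP) stood in for chlamydial growth, nuclei count (Hoechst) for host cell viability. MICs were derived as for the bulk readout.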

SMILES | % of control remaining
COc1nccc(N2CCCC(CO)(CC3CC3)C2)c1C#N (centres unmarked) [CBK307553] | 93.0182
C[C@]12CN(Cc3ccccc3)C[C@H]1NC(=O)c1ccccc1C2O (some centres unmarked) [CBK282302] | 64.8079
O=C(COC(=O)c1cc(O)nc2ccccc12)c1ccc(Br)cc1 [CBK262125] | 99.6147
O=C1C(=CNCCN2CCOCC2)C(=O)c2ccccc21 [CBK263008] | 63.4167
CCOC(=O)c1sc(-c2ccccc2)nc1OCc1ccccc1Cl [CBK067727] | 93.6805
CN(C)C(=O)c1cccc(S(=O)(=O)NCC2CCCO2)c1 (centres unmarked) [CBK304867] | 92.6353
CN(C)CCn1c(=O)[nH]c2ncc(-c3ccco3)nc21 [CBK064251] | 75.1721
O=C(NCc1ccccc1)c1ccccc1NC(=O)C1CCCCC1C(=O)O (centres unmarked) [CBK269283] | 97.9009
CC(NC(=O)C1C=CCN1S(C)(=O)=O)c1ccc2c(c1)CCC2 (centres unmarked) [CBK282667] | 115.749
COc1cccc(C(=O)N2CCN(C(=O)Nc3ccc(C(F)(F)F)cc3)CC2)c1 [CBK154788] | 95.295
CC(C)CCNC(=O)N(CCC#N)C1CCCCC1 [CBK156378] | 92.1576
COC(=O)Nc1ccc(S(=O)(=O)N2CCCCC2C(=O)O)cc1 (centres unmarked) [CBK058086] | 101.475
COc1cccc(C(=O)N2CCC(Cc3ccccc3-c3ccccc3C)(C(N)=O)CC2)c1 [CBK285722] | 108.58
CCN(Cc1ccccc1)Cc1nc2ccccc2c(=O)[nH]1 [CBK283203] | 84.7028
O=C(O)CN1C(=O)CC2(C1=O)C(=O)N(Cc1ccccc1)c1ccccc12 (centres unmarked) [CBK076093] | 93.8858
Clc1cccc(CNc2nccnc2-c2ccoc2)c1 [CBK036616] | 98.9832
O=C(CC1C(=O)N(c2ccccc2)C(=S)N1NC(=O)c1ccccn1)Nc1ccc(Cl)cc1 (centres unmarked) [CBK266711] | 59.292
COc1ccc(Nc2ccc(-c3ccc4c(c3)OCO4)cn2)c(C)c1 [CBK036799] | 82.7102
CCn1c(=O)n(CC(=O)N2CC(C)CC(C)C2)c2cccnc21 (centres unmarked) [CBK283845] | 78.8459
Oc1ccc(CN2CCN(Cc3ccc(Br)s3)CC2)c2cccnc12 [CBK295645] | 63.4045
Cc1nc2c(-c3cccs3)c(C)nn2c(O)c1C [CBK283728] | 96.9462
O=C1COc2ccccc2C/C=C/CC2(CCCN(C(=O)CN3CCCC3=O)C2)CN1 (centres unmarked) [CBK292032] | 98.776
CCOC(=O)c1sc(-c2ccc(C(C)(C)C)cc2)nc1O [CBK078538] | 98.7865
CCn1c2ccccc2c2cc(NC(=O)CN(C)S(=O)(=O)c3ccc(C)cc3)ccc21 [CBK266756] | 115.742
C#CCn1cc(CN2CCc3c(nc(C)[nH]c3=O)C2)c2ccccc21 [CBK282382] | 120.387
Cn1cc(C2CCCCCN2C(=O)c2cccc(F)c2)cn1 (centres unmarked) [CBK284970] | 66.343
COc1ncc(-c2nccnc2N[C@H](C)c2ccccc2)c(OC)n1 [CBK036588] | 107.043

SMILES | % of control remaining
COc1cccc2sc(NC(=O)c3c(F)cccc3F)nc12 [CBK149283] | 106.534
NCCCC(C(=O)O)C(=O)c1ccccc1-c1ccccc1 (centres unmarked) [CBK286941] | 84.0861
CN(C)S(=O)(=O)c1ccc(-c2nn(-c3ccccc3)cc2/C=C(\C#N)c2nc3ccccc3c(=O)[nH]2)cc1 [CBK266266] | 87.5856
CCCn1cc(C(=O)NCc2ccc(Cl)cc2)c(=O)c2cc(CN3CCOCC3)sc21 [CBK018478] | 99.8249
Cc1ccc(S(=O)(=O)/N=C(\Nc2nc3ccccc3o2)NS(=O)(=O)c2ccc(C)cc2)cc1 [CBK266728] | 72.1539
CN(C)c1ccc(-c2nnc([C@H]3CCN(C(=O)c4ccccc4)C3)o2)cc1 [CBK289407] | 93.4841
COc1ccc(Cc2nc(CC3CCCOC3)n(CC(F)(F)F)n2)cc1 (centres unmarked) [CBK307140] | 87.4452
CCC(=O)N1CCCc2cc(C(O)CN3CCN(c4ccc(F)cc4)CC3)ccc21 (centres unmarked) [CBK286480] | 16.5074
COCOc1ccc(-c2nccnc2OCCc2cccs2)cc1 [CBK106911] | 84.6956
NS(=O)(=O)c1ccc(-c2nc(-c3ccccc3)no2)cc1 [CBK269957] | 104.861
Cc1ccc2nc(-c3ccc(/N=C/c4cccc(O)c4O)cc3)sc2c1 [CBK261583] | 95.9545
Nc1nc2ccccc2cc1-c1cccs1 [CBK112549] | 73.5488
Cc1ccc(S(=O)(=O)NCC(=O)N2CCN(Cc3ccccc3)CC2)cc1 [CBK265991] | 108.035
COc1cc(/C=N/NC(N)=O)ccc1OC(=O)c1sc2ccccc2c1Cl [CBK262265] | 97.3293
CCCNC(=O)N1CCN2C(=O)c3cc(-c4ccccc4F)ccc3NC(=O)[C@@H]2C1 [CBK289595] | 101.12
CCCCCNC(=O)C1CCN(Cn2c(=O)oc3cc(Cl)ccc32)CC1 [CBK298290] | 102.13
Cn1nc(-c2ccc(N3CCCCC3)c(NC(=O)COc3ccccc3)c2)c2ccccc2c1=O [CBK265780] | 117.621
CN1CCC(N(C)C(=O)NCc2cccc3ccccc23)C1 (centres unmarked) [CBK155999] | 90.8838
O=C(O)COc1ccc(N2C(=O)C(O)=C(C(=O)c3ccccc3)C2c2cccc(F)c2)cc1 (centres unmarked) [CBK287010] | 112.741
O=C(CSc1ccc(F)cc1)Nc1cc(Cl)ccc1O [CBK268685] | 93.7897
CC1CCCN(Cc2c(C3CCCNC3)[nH]c3ncccc23)C1 (centres unmarked) [CBK285112] | 58.9797
O=C(c1cncnc1)N1CCC(F)CC1 [CBK200384] | 97.0253
CSCC[C@@H]1NC(=O)N(c2ccc(CN3CCOCC3)cc2)C1=O [CBK287954] | 137.732
CCN1CCN(c2ccc(NC(=O)c3cc(-n4cnnc4)ccc3Cl)cc2Cl)CC1 [CBK269343] | 107.715
O=C(N/N=C/c1ccccc1Cl)c1ccc(C(=O)N/N=C/c2ccccc2Cl)cc1 [CBK261698] | 98.1662
Cc1cccc(C(=O)NNC(=O)c2cccc(Cl)c2)c1 [CBK261676] | 98.9905
CCC(CNC(=O)c1cccc(C)n1)N1CCCC1 (centres unmarked) [CBK304803] | 68.5433

SMILES | % of control remaining
O=C1CCC(=O)N1CCOc1nccnc1OC1CCN(CC2CCCCC2)CC1 [CBK084357] | 89.1688
CCCc1cc(=O)oc2cc(OCc3ccc(C(=O)O)o3)ccc12 [CBK264786] | 94.3751
COc1ccc(CCNC(=O)C(N)=O)cc1OC [CBK288457] | 64.4723
N=c1n(CCN2CCOCC2)c2ccccc2n1CC(O)c1cccs1 (centres unmarked) [CBK262895C] | 83.9156
CCn1ncnc1CN1CCN(C2Cc3ccccc3C2)CC1 [CBK304401] | 54.59
COc1cc(CNc2nccnc2-c2ccc(C(=O)N3CCOCC3)cc2)cc(OC)c1 [CBK036866] | 97.4457
C[C@H](c1ccccc1)n1c(=O)[nH]c2ncc(-c3cccc4cccnc34)nc21 [CBK064237] | 88.4673
CCNC(=O)C1(Cc2ccccc2-c2ccncc2)CCOCC1 [CBK285216] | 107.87
COc1ccc(OC)c(C(O)c2nc3ccccc3n2C(C)C)c1 (centres unmarked) [CBK263474] | 48.2292
Nc1cccc(-c2nc(-c3cccs3)cnc2N)c1 [CBK063923] | 84.1245
CN(C)CCCNC(=O)c1ccc(/C=N/O)nc1 [CBK288489] | 109.005
O=C(NCc1ccc(Cl)cc1)c1cnc2ccc(CN3CCSCC3)cc2c1O [CBK018010] | 87.2704
CN(C)CCN(C)C(=O)c1ccc(-c2cccc(N(C)C)c2)nc1N(C)C [CBK106077] | 75.2031
O=C(CSc1nnc2sc3ccccc3n12)N1N=CCC1c1ccccc1 (centres unmarked) [CBK266527] | 117.406
O=C(NCCNc1ccc([N+](=O)[O-])cc1Cl)c1ccc(F)cc1 [CBK262344] | 102.663
c1cncc(-c2nnc([C@H]3CCNC3)o2)c1 [CBK289396] | 81.2371
N=C(Nc1nc(CSc2nnc(N)s2)cc(=O)[nH]1)Nc1ccc(Cl)cc1Cl [CBK268890] | 83.2541
O=C(C1=C(O)C(=O)N(CCN2CCOCC2)C1c1cccnc1)c1ccco1 (centres unmarked) [CBK264570] | 110.385
CCC#CC(=O)Nc1ccc(N2CCNCC2)nc1 [CBK004746T] | 87.8451
Cc1ccc(S(=O)(=O)N(Cc2c(F)cccc2F)C2CCNCC2)cc1 [CBK163927T] | 55.9298
Cc1ccccc1NC(=O)Cn1c(=O)cnc2ccccc21 [CBK287852] | 84.3402
CC(=O)N1CC2(CCN(Cc3nccn3C(C)C)CC2)CC1C(=O)O (centres unmarked) [CBK306587] | 66.3729
Cc1ccc(C(=O)C2=C(O)C(=O)N(CCCn3ccnc3)C2c2ccncc2)cc1 (centres unmarked) [CBK264476] | 110.897
Cc1cc(=O)n(CC(=O)NC(C)Cc2ccccn2)c2ccccc12 (centres unmarked) [CBK281420] | 106.569
c1ccc2cc(-c3cn4ccnc4c(NC4CCOCC4)n3)ccc2c1 [CBK066290] | 119.102
COc1cc(C(=O)N2CCN(Cc3c[nH]c4ccccc34)CC2)cc(OC)c1OC [CBK301212G] | 94.0304

Source: paper PMC12040169 (PLOS Biology, 2025)
